# Data: the supplement of paper PMC4604168 (melanoma cell lines)
# Some of the results follow. Most values come without repeats; read them as rough.
# Test system: MEL-HO
# Test: cell count relative to DMSO control; melanoma cells; higher = more viable cells
# Conditions: library dose: low library concentration; 72 h
# 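Note: cell number obtained by counting DAPI-stained nuclei in high-throughput microscope images with image analysis software, screen run in 1,536-well plates.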
row,SMILES,cell count [%]
1,"CC[C@]1(O)C[C@H]2CN(CCc3c([nH]c4ccccc34)[C@@](C(=O)OC)(c3cc4c(cc3OC)N(C=O)[C@H]3[C@@](O)(C(=O)OC)[C@H](OC(C)=O)[C@]5(CC)C=CCN6CC[C@]43[C@@H]65)C2)C1 [vincristine] + Oc1nc(-c2ccc(C(F)(F)F)cc2)nc2c1CSCC2 [XAV939] (first compound 0.0001 µM, partner dose 2 µM)",91.1
2,"CC[C@]1(O)C[C@H]2CN(CCc3c([nH]c4ccccc34)[C@@](C(=O)OC)(c3cc4c(cc3OC)N(C=O)[C@H]3[C@@](O)(C(=O)OC)[C@H](OC(C)=O)[C@]5(CC)C=CCN6CC[C@]43[C@@H]65)C2)C1 [vincristine] + CC(=O)O[C@@]12CO[C@@H]1C[C@H](O)[C@@]1(C)C(=O)[C@H](O)C3=C(C)[C@@H](OC(=O)[C@H](O)[C@@H](NC(=O)OC(C)(C)C)c4ccccc4)C[C@@](O)([C@@H](OC(=O)c4ccccc4)[C@H]21)C3(C)C [Docetaxel] (first compound 0.0001 µM, partner dose 0.0001 µM)",57.3
3,"N#CC[C@H](C1CCCC1)n1cc(-c2ncnc3[nH]ccc23)cn1 [ruxolitinib] + Cn1nnc2c(C(N)=O)ncn2c1=O [temozolomide] (first compound 1 µM, partner dose 2 µM)",95.7
4,"Cc1cc(Nc2cc(N3CCN(C)CC3)nc(Sc3ccc(NC(=O)C4CC4)cc3)n2)n[nH]1 [Tozasertib] + Nc1nc(F)nc2c1ncn2[C@@H]1O[C@H](CO)[C@@H](O)[C@@H]1O [fludarabine] (first compound 0.006 µM, partner dose 0.2 µM)",89
5,"N#CC[C@H](C1CCCC1)n1cc(-c2ncnc3[nH]ccc23)cn1 [ruxolitinib] + NC(=O)c1ccc(N(C(N)=O)c2c(F)cccc2F)nc1-c1ccc(F)cc1F [VX702] (first compound 1 µM, partner dose 0.4 µM)",108
